Laboratory results from the supplement of paper PMC3334620.
The full ranking holds about 33,000 sequences; the median of “E-score (-0.5 to 0.5)” is about -0.054, and the highest 2% start at about 0.35. The list shows a part of the results.

These sequences were tested against T1, Stb5 (UniProt P38699) (assay: PBM E-score (8-mer binding enrichment) (E-score (-0.5 to 0.5)); higher = stronger / more preferred TF binding; most listed sequences are background and not binding sites). Conditions: protein concentration: 200 nM; construct: GST-full length.
T1 sequence: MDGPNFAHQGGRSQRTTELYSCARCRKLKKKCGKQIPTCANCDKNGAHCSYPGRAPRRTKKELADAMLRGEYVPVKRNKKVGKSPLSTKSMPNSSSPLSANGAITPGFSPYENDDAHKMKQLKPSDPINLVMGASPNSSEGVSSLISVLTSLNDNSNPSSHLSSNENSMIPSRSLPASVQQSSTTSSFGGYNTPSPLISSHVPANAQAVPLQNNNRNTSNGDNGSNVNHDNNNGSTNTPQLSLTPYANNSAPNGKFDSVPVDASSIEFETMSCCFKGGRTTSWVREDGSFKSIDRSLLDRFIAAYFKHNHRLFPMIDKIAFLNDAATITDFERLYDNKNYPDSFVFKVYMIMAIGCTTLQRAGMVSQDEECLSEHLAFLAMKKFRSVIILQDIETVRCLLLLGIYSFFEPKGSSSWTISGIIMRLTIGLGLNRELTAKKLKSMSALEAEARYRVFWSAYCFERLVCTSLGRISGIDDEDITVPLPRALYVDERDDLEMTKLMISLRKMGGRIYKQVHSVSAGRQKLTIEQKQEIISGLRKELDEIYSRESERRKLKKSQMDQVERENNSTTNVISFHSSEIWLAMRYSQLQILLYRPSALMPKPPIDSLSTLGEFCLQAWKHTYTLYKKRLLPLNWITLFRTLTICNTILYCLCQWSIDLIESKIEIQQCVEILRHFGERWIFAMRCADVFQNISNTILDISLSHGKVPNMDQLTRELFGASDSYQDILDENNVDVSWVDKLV
Outline: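 Universal all-10-mer Agilent arrays, fresh or stripped once, were converted to double-stranded form by primer extension. GST-tagged yeast transcription factors from PURExpress in vitro transcription/translation, full-length or DNA-binding domain only, were applied at about 100-200 nM and detected with fluorescent anti-GST. After masliner normalisation, the Universal PBM Analysis Suite scored each ungapped eight-base word together with its reverse complement by E-score.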

Sequence | PBM E-score
CCAAACCA | -0.074
AACTGCAG | -0.159
GTTATTAA | 0.178
GCTGCAGA | -0.14
GACACTTA | 0.0678
ATGTCAAA | -0.107
AAACACTT | -0.1
AACGCGAG | -0.161
TAGGATCA | -0.221
ACACGCAA | -0.202
GCAACCCA | -0.314
GCCCCGGA | 0.289
CCCCGTCA | 0.265
ATTCCAGC | -0.138
ACGTATAA | 0.0262
ACCCCTAG | -0.161
CGGATGCA | 0.163
GAATTTGC | -0.0561
GGTGAGAC | -0.00101
AGTCTTCC | -0.174
ACTAAAGT | -0.082
AGGAAAGC | -0.0135
CGACAATC | -0.0337
GAACTCAC | -0.221
CTTGAAGC | -0.0308

Sequence | PBM E-score
ATAGGCGC | 0.0984
CACCGTGC | 0.332
CCCGGACC | 0.185
CCGCGGAA | 0.265
CATAAAGA | -0.292
CTACGAAA | -0.063
AGCACCAC | -0.0526
CTCTGACA | -0.192
AATACCGT | 0.438
TCAGTACA | -0.173
GCCGTGCC | 0.206
ATGTTCCC | 0.143
AACTGCAA | -0.186
AAGCCCTT | -0.131
AGGGGACG | -0.114
CATACCCA | -0.212
CTGGTTCA | -0.266
AGAACAAC | -0.129
CGACACTA | 0.159
CATTTATA | 0.138
GCCGTGGA | 0.153
GACGCAGC | -0.159
AATAGGAG | -0.0903
TAGAAAGA | -0.0426
AATTGAAG | -0.0893

Sequence | PBM E-score
AGAAGCGC | 0.141
ACTAGGAG | -0.0619
ACTCTTAC | -0.2
CGGTCCGA | 0.389
AAGTGTAG | -0.142
AAAAAGTG | -0.115
ACAAGCAC | -0.00207
GTGTACGA | -0.0421
GCCCAGAC | -0.068
ATAGTGAT | -0.197
CCTGAAAA | -0.00317
CCGGTCGC | 0.18
AATAAGTA | -0.0717
GCGCCCTA | 0.053
AGATTTGA | -0.12
GGGGTTCA | 0.0443
AGTCCAAC | -0.163
AGTCTTGC | -0.197
ATCTTTCA | 0.018
GAGATTCC | 0.09
AATCTTCC | -0.0895
ATGTTAGG | -0.219
AGAAGTCT | -0.259
CCATTAGA | -0.0178
ATCTAATG | 0.00365

Sequence | PBM E-score
CTACATTA | -0.28
CACAAACA | 0.0111
AGAACACC | 0.225
ACACAAGA | -0.139
ATTACGAC | 0.0228
GAGTCCCA | -0.0129
AGTTAGGG | -0.112
CCCGTTCC | 0.222
AAACTTAA | -0.129
ACCGACTG | 0.264
AACAAAAC | 0.00124
ATAACAGA | -0.12
CAGTAGGA | -0.104
AAATCCTT | 0.0218
AGGGTTGA | -0.255
CACCGGTC | 0.337
TACCGGCA | 0.31
CCCGGGCA | 0.252
CTCGAATC | -0.166
AGACCGGG | 0.311
ACGCAAGG | -0.0747
CTACCTCA | -0.148
AGCGCTAG | -0.0224
CATGTCCG | 0.273
CCGGACGA | 0.129

Sequence | PBM E-score
CCTTCAGA | -0.186
CACACGCG | -0.0214
AATTGATG | 0.0383
ATGACGTC | 0.0681
AACAGGTT | -0.0872
CAATCAGC | -0.0863
AGTTCATG | -0.143
CATGCGCC | 0.106
CCCAGCGC | -0.0593
AATTGCAA | -0.0848
AGACGTGA | -0.276
CCGATAGG | 0.285
AACTGAGC | -0.0713
ATCAATGG | -0.04
CGTCATGC | 0.109
AGACATGG | -0.186
GTTTGTGA | -0.166
AGGAGAAT | -0.0644
AGTTGATC | -0.132
ACTGCCAA | -0.0471
ACGAACGA | -0.143
AGAATATC | 0.148
AAGGTCTC | -0.26
TTCGCAAA | 0.0798
AACCCCTG | 0.118

Sequence | PBM E-score
ATCTAAAC | 0.159
GCAACGAA | -0.223
ATTGTCTC | -0.143
CGCCATGA | -0.0191
TACTGTAA | -0.0225
TGAAACCA | -0.0203
CAACTCGA | -0.107
AGTAGGCG | -0.0333
CTATAGTA | 0.142
ACGACTGA | -0.163
ATTTCAAA | -0.0839
GGTGGGAA | 0.0469
CCTCCGCC | 0.223
AATAGCTG | -0.0948
CACGCGCA | 0.0401
CGAGATGC | 0.0367
ATCCTTGA | -0.2
AATTTCCG | 0.238
ATATCAGG | -0.0889
ACCCTCAA | -0.154
GGGACCCA | -0.0663
ATTATTTC | 0.0326
AGGCCGTG | 0.212
AAGTAATT | -0.096
CACAACGC | 0.0974

Sequence | PBM E-score
CCTCCCAG | -0.176
GAATGCGA | 0.00809
CTATCCAG | -0.0852
AGTAGCTA | -0.139
GGTAGCAC | 0.0271
GTTTCGGA | 0.14
AGCATACA | -0.0693
CTCAAGCC | -0.0953
CGGTGGAG | 0.092
GAGAGAGC | -0.0519
CGGCCGAA | 0.122
AGCCTTAT | -0.0816
GGGATCAA | 0.187
GACGGACA | 0.372
AGCGTTCC | -0.147
CTATTGAG | -0.239
GATTAATC | 0.141
CATCCTCG | -0.0586
GTCGCTAA | -0.0706
ATATTATG | -0.108
ATATGCAA | -0.088
AACTATTA | -0.111
